# The campaign covered roughly 320,000 compounds. About 9,100 (2.8%) were called active. Inconclusive results, whose numbers are uncertain, are shown with a selection of clear calls. Calls follow the shape of the dose curve; as a rule, active = well fitted activation curve with a large enough effect; inconclusive = small, poorly fitted or top-dose-only effect; inactive = no such curve, though single readings can be large or run the other way. Potencies of inconclusive entries are left out as doubtful fits.
# Assay: qHTS Assay for Rab9 Promoter Activators; also: nearly all actives have a fitted effect of over 60% in size; as to activation, negative = inhibition: % of control where 0% means no effect
# Conditions: Huh7 Rab9 promoter-luciferase reporter, luminescence, 24 h; series mostly up to 9.22 µM; activation, negative = inhibition: at the top concentration
# Summary of the method: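 Cell-based reporter: Huh7 stable for Rab9 promoter-driven luciferase, plated in reduced-serum medium with 10% FBS at 1500 cells/well, compound-treated 24 h at 37 °C, luminescence read after 10 min reagent.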
# Potency is read from the fitted curve at half-maximal effect; tags tell the direction and shape of the fitted curve.
Compound,Potency,"activation, negative = inhibition"
Cc1cccc(/N=C/c2c(O)[nH]c3ccccc23)n1,active: 3.55 µM,–
COc1cccc2cc(CC(=O)c3ccc(C)cc3C)c(=O)oc12,"inconclusive [activator, partial curve]",–
N/C(=N\OC(=O)C1CCCCC1)c1ccc(Br)cc1,"inconclusive [activator, single point]",–
Cc1c(C(=O)NCC2CCCO2)oc2ccc(Br)cc12 (centres undefined),"inconclusive [activator, partial curve]",–
Fc1ccc(-c2nnc(-c3ccc(F)cc3)o2)cc1,"inconclusive [activator, partial curve]",–
COc1ccc(-c2cccc(NC(=O)COc3ccc(Cl)cc3)c2)nn1,–,inactive: -2.88%
CCc1nc(SCC(=O)c2ccc(Cl)s2)c2oc3ccccc3c2n1,"inconclusive [activator, partial curve]",–
Cc1nc2ccc(NC(=O)NCCCO)cc2s1,"inconclusive [activator, single point]",–
O=C(NCCCN1CCOCC1)c1cc(-c2ccc(F)cc2)nc2ccccc12,–,inactive: -0.891%
O=[N+]([O-])c1cc(/C=N/N2CCCCC2)ccc1Cl,"inconclusive [activator, single point]",–
CC1CCN(c2ncnc3c2cnn3-c2ccccc2)CC1,active: 0.631 µM,–
Nc1nc(Nc2ccc(Cl)cc2)nc(NCc2ccco2)c1[N+](=O)[O-],"inconclusive [activator, partial curve]",–
CC1CCN(c2ccc([N+](=O)[O-])c(SCCO)c2)CC1,"inconclusive [activator, single point]",–
Cc1ccccc1-c1nnc(SCC(=O)N2CCCC2)o1,"inconclusive [activator, partial curve]",–
Cc1ccccc1OCC(=O)Nc1nc2ccccc2[nH]1,active: 2.24 µM,–
Cc1cc(=O)oc2cc(OC(C)C(=O)NC3(C#N)CCCCC3)ccc12 (centres undefined),–,inactive: 1.3%
Cc1ccc(N(CC(=O)Nc2ccc3c(c2)OCCO3)S(C)(=O)=O)cc1,"inconclusive [activator, partial curve]",–
O=C(O)c1cc(N/N=C/c2ccc3c(c2)OCCO3)ccc1Cl,"inconclusive [activator, full curve, poor fit]",–
COC(=O)C1C(=O)c2c([nH]c(C(=O)OCC3CCCO3)c2C)CC1C (centres undefined),"inconclusive [activator, partial curve]",–
CCOC(=O)c1oc2nc3c(cc2c1N)CCCC3,active: 1.41 µM,–
COc1ccc(OCc2cc(C(=O)NCC3CCOCC3)no2)c(Cl)c1,"inconclusive [activator, single point]",–
Cc1ccc(NS(=O)(=O)c2cccc(C(=O)NCC(c3ccco3)N3CCCCC3)c2)cc1 (centres undefined),–,inactive: -7.05%
CC(C)c1ccc2c(c1)[C@H]1OCC[C@H]1[C@@H](c1cccs1)N2,–,inactive: -13.1%
CCOC(=O)N/N=C/c1ccc(Oc2ccccc2)cc1,"inconclusive [activator, partial curve]",–
COc1cccc(CC(=O)OCC(=O)N(C)CC(=O)Nc2ccccc2Cl)c1,–,inactive: -1.08%

Compound,Potency,"activation, negative = inhibition"
CC(=O)Oc1ccc(C(=O)Nc2ccc3c(c2)OCCO3)cc1,active: 1.58 µM,–
CN1CCN(Cc2ccc(OCc3ccccc3)cc2)CC1,"inconclusive [activator, single point]",–
CCc1nnc(NC(=O)/C=C/c2ccc(C)o2)s1,"inconclusive [activator, single point]",–
O=C(Nc1nc(-c2ccc3c(c2)OCO3)cs1)C1CC1,active: 3.55 µM,–
Cc1cccc(C)c1C(=NCCCN(C)C)c1ccccc1,–,inactive: -4.45%
Cc1ccc(OCC(=O)Nc2ccc(-c3nnc(-c4ccco4)o3)cc2)cc1,active: 2.82 µM,–
CCc1cccc(NC(=O)CCc2c(C)nn(-c3ccc(N4CCCCC4)nn3)c2C)c1,"inconclusive [activator, partial curve]",–
CC(=O)C1=C(O)C(=O)N(c2ccccn2)C1c1ccccc1[N+](=O)[O-] (centres undefined),–,inactive: 11.6%
COc1ccc(CN(C(=O)Cn2nnc(-c3ccc(C)o3)n2)C(C(=O)NCC2CCCO2)c2ccco2)cc1 (centres undefined),"inconclusive [activator, full curve]",–
CC(=O)Nc1cccc(C(=O)OCc2ccccc2)c1,"inconclusive [activator, single point]",–
O=C(Nc1ccccc1F)c1cccc(C(=O)Nc2ccccc2F)c1,"inconclusive [activator, partial curve]",–
O=C(Nc1nc(-c2ccc(Cl)cc2)cs1)C1CCCO1 (centres undefined),"inconclusive [activator, single point]",–
CNc1nc(N)c([N+](=O)[O-])c(NCc2ccccc2)n1,–,inactive: -10.9%
CCc1nnc(NC(=O)CSc2nc(-c3ccc(OC)cc3)ns2)s1,"inconclusive [activator, single point]",–
O=C(Nc1ccc(Br)cn1)c1ccc(Cl)s1,active: 1 µM,–
O=C(NCCc1ccccc1)c1cccs1,active: 2.82 µM,–
Cc1sc2nc3n(c(=O)c2c1C)Cc1ccccc1-3,"inconclusive [activator, partial curve]",–
N#Cc1ccc2c(c1)C[C@]1(c3ccsc3)Oc3c(c(=O)oc4ccccc34)C2O1,–,inactive: -3.97% [at 1.84 µM]
C/C(=N\Nc1ccc(C(F)(F)F)cn1)c1ccncc1,"inconclusive [activator, single point]",–
CC(C)(C)c1ccc(OCC(=O)NNC(=S)NC(=O)c2ccco2)c(Br)c1,–,inactive: 2.81%
COc1ccc(NC(=O)Nc2ccc(F)cc2F)c(C)c1,–,inactive: 14%
Cc1nc(SCC(=O)Nc2ccc(OCc3ccccc3)cc2)n[nH]1,"inconclusive [activator, partial curve]",–
O=C(OCN1C(=O)c2ccccc2C1=O)c1cccc(OC(F)F)c1,–,inactive: 5.62%
O=C(NCCCCCCOC1=NS(=O)(=O)c2ccccc21)C(=O)Nc1ccccc1,"inconclusive [activator, partial curve]",–

# From PubChem BioAssay AID485297 (National Center for Advancing Translational Sciences (NCATS), 2010)
